# The other results are listed elsewhere or left out. Cut-off read from the data, not from the text of the source: active = 3.2 or more and inactive = the rest. The signal is at background level for most entries.
# Molecular target: SHP2 C-SH2 domain E139D
# Assay: enrichment score (SH2-bound / input frequency) (ratio); bacterial display of known human phosphotyrosine sites (pTyr-Var adds point mutants) read by sequencing; higher = stronger binding; tyrosines were phosphorylated by kinases first
# Settings: peptide library: pTyr-Var
# 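Note: displayed peptides selected on beads carrying the immobilized SH2 domain, with library peptides lacking any tyrosine serving as negative controls.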
row,Binder,enrichment score
1,AVSEGYKDFRA [CDA_Y79],inactive: 0.669
2,LDLPGYCPLRE [CCDC116_Y291],inactive: 0.773
3,KKRSVYIKVLF [CC2D2A_Y683_L684I],inactive: 0.609
4,LDLPGYCLLRE [CCDC116_Y291_P293L],inactive: 0.769
5,TVFSDYLHPQF [CCPG1_Y569_YF],inactive: 1.21
6,DLSEVYKPCRK [CCDC93_Y176_R179C],inactive: 0.609
7,CSDPSYVKQME [CDC5L_Y464_Y459C],inactive: 0.765
8,KKKKQYKDKYL [CASK_Y708],inactive: 0.375
9,HDHYGYRQSVT [CD55_Y245_R240H],inactive: 1.68
10,ESDGAYIQRMQ [CCDC137_Y125_H127Q],inactive: 0.594
11,AISEGYKDFRA [CDA_Y79_V75I],inactive: 0.604
12,RASSVFTRSTG [CCR5_Y339_Y339F],inactive: 0.506
13,VTQEQYELYCE [CBL_Y368],inactive: 0.822
14,NELTYYCCKKD [CD59_Y87],inactive: 0.864
15,VTHKEYFIFLE [CAMKV_Y95_R92H],active: 3.59
16,SVGGLYRDMGA [CBX8_Y321_G317V],inactive: 0.665
17,IMAFFYMCDRA [CASD1_Y382_YF],inactive: 2.3
18,ELTTCYRKKCC [CCBE1_Y70],inactive: 0.749

# Molecular target: SHP2 C-SH2 domain wild-type
# Assay: as above
# Settings: peptide library: pTyr-Var
row,Binder,enrichment score
1,AVSEGYKDFRA [CDA_Y79],inactive: 0.849
2,LDLPGYCPLRE [CCDC116_Y291],inactive: 0.861
3,KKRSVYIKVLF [CC2D2A_Y683_L684I],inactive: 0.794
4,LDLPGYCLLRE [CCDC116_Y291_P293L],inactive: 1.81
5,TVFSDYLHPQF [CCPG1_Y569_YF],inactive: 0.88
6,DLSEVYKPCRK [CCDC93_Y176_R179C],inactive: 0.617
7,CSDPSYVKQME [CDC5L_Y464_Y459C],inactive: 0.896
8,KKKKQYKDKYL [CASK_Y708],inactive: 0.396
9,HDHYGYRQSVT [CD55_Y245_R240H],inactive: 1.78
10,ESDGAYIQRMQ [CCDC137_Y125_H127Q],inactive: 0.576
11,AISEGYKDFRA [CDA_Y79_V75I],inactive: 0.8
12,RASSVFTRSTG [CCR5_Y339_Y339F],inactive: 0.446
13,VTQEQYELYCE [CBL_Y368],inactive: 0.942
14,NELTYYCCKKD [CD59_Y87],inactive: 0.749
15,VTHKEYFIFLE [CAMKV_Y95_R92H],active: 3.23
16,SVGGLYRDMGA [CBX8_Y321_G317V],inactive: 0.756
17,IMAFFYMCDRA [CASD1_Y382_YF],inactive: 2.69
18,ELTTCYRKKCC [CCBE1_Y70],inactive: 0.565

# Molecular target: SHP2 N-SH2 domain L43F
# Assay: as above
# Settings: peptide library: pTyr-Var
row,Binder,enrichment score
1,AVSEGYKDFRA [CDA_Y79],inactive: 0.816
2,LDLPGYCPLRE [CCDC116_Y291],inactive: 0.764
3,KKRSVYIKVLF [CC2D2A_Y683_L684I],inactive: 0.784
4,LDLPGYCLLRE [CCDC116_Y291_P293L],inactive: 0.754
5,TVFSDYLHPQF [CCPG1_Y569_YF],inactive: 0.765
6,DLSEVYKPCRK [CCDC93_Y176_R179C],inactive: 0.612
7,CSDPSYVKQME [CDC5L_Y464_Y459C],inactive: 0.809
8,KKKKQYKDKYL [CASK_Y708],inactive: 0.395
9,HDHYGYRQSVT [CD55_Y245_R240H],inactive: 1.83
10,ESDGAYIQRMQ [CCDC137_Y125_H127Q],inactive: 0.655
11,AISEGYKDFRA [CDA_Y79_V75I],inactive: 0.798
12,RASSVFTRSTG [CCR5_Y339_Y339F],inactive: 0.428
13,VTQEQYELYCE [CBL_Y368],inactive: 0.682
14,NELTYYCCKKD [CD59_Y87],inactive: 0.811
15,VTHKEYFIFLE [CAMKV_Y95_R92H],active: 3.45
16,SVGGLYRDMGA [CBX8_Y321_G317V],inactive: 0.624
17,IMAFFYMCDRA [CASD1_Y382_YF],inactive: 2.2
18,ELTTCYRKKCC [CCBE1_Y70],inactive: 0.478

# Molecular target: SHP2 N-SH2 domain T42A
# Assay: as above
# Settings: peptide library: pTyr-Var
row,Binder,enrichment score
1,AVSEGYKDFRA [CDA_Y79],inactive: 0.591
2,LDLPGYCPLRE [CCDC116_Y291],inactive: 0.782
3,KKRSVYIKVLF [CC2D2A_Y683_L684I],inactive: 1.16
4,LDLPGYCLLRE [CCDC116_Y291_P293L],inactive: 0.887
5,TVFSDYLHPQF [CCPG1_Y569_YF],inactive: 1.59
6,DLSEVYKPCRK [CCDC93_Y176_R179C],inactive: 0.561
7,CSDPSYVKQME [CDC5L_Y464_Y459C],inactive: 0.725
8,KKKKQYKDKYL [CASK_Y708],inactive: 0.277
9,HDHYGYRQSVT [CD55_Y245_R240H],inactive: 1.63
10,ESDGAYIQRMQ [CCDC137_Y125_H127Q],inactive: 0.439
11,AISEGYKDFRA [CDA_Y79_V75I],inactive: 0.796
12,RASSVFTRSTG [CCR5_Y339_Y339F],inactive: 0.432
13,VTQEQYELYCE [CBL_Y368],inactive: 0.75
14,NELTYYCCKKD [CD59_Y87],inactive: 0.76
15,VTHKEYFIFLE [CAMKV_Y95_R92H],inactive: 2.71
16,SVGGLYRDMGA [CBX8_Y321_G317V],inactive: 0.608
17,IMAFFYMCDRA [CASD1_Y382_YF],inactive: 2.05
18,ELTTCYRKKCC [CCBE1_Y70],inactive: 0.442

# Molecular target: SHP2 N-SH2 domain T52S
# Assay: as above
# Settings: peptide library: pTyr-Var
row,Binder,enrichment score
1,AVSEGYKDFRA [CDA_Y79],inactive: 0.643
2,LDLPGYCPLRE [CCDC116_Y291],inactive: 1.1
3,KKRSVYIKVLF [CC2D2A_Y683_L684I],inactive: 0.961
4,LDLPGYCLLRE [CCDC116_Y291_P293L],inactive: 0.813
5,TVFSDYLHPQF [CCPG1_Y569_YF],inactive: 1.12
6,DLSEVYKPCRK [CCDC93_Y176_R179C],inactive: 0.707
7,CSDPSYVKQME [CDC5L_Y464_Y459C],inactive: 0.621
8,KKKKQYKDKYL [CASK_Y708],inactive: 0.411
9,HDHYGYRQSVT [CD55_Y245_R240H],inactive: 1.87
10,ESDGAYIQRMQ [CCDC137_Y125_H127Q],inactive: 0.712
11,AISEGYKDFRA [CDA_Y79_V75I],inactive: 0.867
12,RASSVFTRSTG [CCR5_Y339_Y339F],inactive: 0.579
13,VTQEQYELYCE [CBL_Y368],inactive: 0.869
14,NELTYYCCKKD [CD59_Y87],inactive: 0.716
15,VTHKEYFIFLE [CAMKV_Y95_R92H],inactive: 2.87
16,SVGGLYRDMGA [CBX8_Y321_G317V],inactive: 0.676
17,IMAFFYMCDRA [CASD1_Y382_YF],inactive: 2.03
18,ELTTCYRKKCC [CCBE1_Y70],inactive: 0.485

# Molecular target: SHP2 N-SH2 domain wild-type
# Assay: as above
# Settings: peptide library: pTyr-Var
row,Binder,enrichment score
1,AVSEGYKDFRA [CDA_Y79],inactive: 0.779
2,LDLPGYCPLRE [CCDC116_Y291],inactive: 1.01
3,KKRSVYIKVLF [CC2D2A_Y683_L684I],inactive: 0.87
4,LDLPGYCLLRE [CCDC116_Y291_P293L],inactive: 1.16
5,TVFSDYLHPQF [CCPG1_Y569_YF],inactive: 0.79
6,DLSEVYKPCRK [CCDC93_Y176_R179C],inactive: 0.801
7,CSDPSYVKQME [CDC5L_Y464_Y459C],inactive: 1.18
8,KKKKQYKDKYL [CASK_Y708],inactive: 0.301
9,HDHYGYRQSVT [CD55_Y245_R240H],inactive: 1.84
10,ESDGAYIQRMQ [CCDC137_Y125_H127Q],inactive: 0.811
11,AISEGYKDFRA [CDA_Y79_V75I],inactive: 0.976
12,RASSVFTRSTG [CCR5_Y339_Y339F],inactive: 0.46
13,VTQEQYELYCE [CBL_Y368],inactive: 0.836
14,NELTYYCCKKD [CD59_Y87],inactive: 0.86
15,VTHKEYFIFLE [CAMKV_Y95_R92H],inactive: 3.19
16,SVGGLYRDMGA [CBX8_Y321_G317V],inactive: 0.799
17,IMAFFYMCDRA [CASD1_Y382_YF],inactive: 2.52
18,ELTTCYRKKCC [CCBE1_Y70],inactive: 0.77

# — the supplement of paper PMC10369915
